Measurements reported in the supplement of paper PMC3334620.
The full ranking holds about 33,000 sequences; the median of “E-score (-0.5 to 0.5)” is about -0.054, and the highest 2% start at about 0.35. This is one part of the list.

Molecular target: T1, Stb5 (UniProt P38699)
T1 sequence: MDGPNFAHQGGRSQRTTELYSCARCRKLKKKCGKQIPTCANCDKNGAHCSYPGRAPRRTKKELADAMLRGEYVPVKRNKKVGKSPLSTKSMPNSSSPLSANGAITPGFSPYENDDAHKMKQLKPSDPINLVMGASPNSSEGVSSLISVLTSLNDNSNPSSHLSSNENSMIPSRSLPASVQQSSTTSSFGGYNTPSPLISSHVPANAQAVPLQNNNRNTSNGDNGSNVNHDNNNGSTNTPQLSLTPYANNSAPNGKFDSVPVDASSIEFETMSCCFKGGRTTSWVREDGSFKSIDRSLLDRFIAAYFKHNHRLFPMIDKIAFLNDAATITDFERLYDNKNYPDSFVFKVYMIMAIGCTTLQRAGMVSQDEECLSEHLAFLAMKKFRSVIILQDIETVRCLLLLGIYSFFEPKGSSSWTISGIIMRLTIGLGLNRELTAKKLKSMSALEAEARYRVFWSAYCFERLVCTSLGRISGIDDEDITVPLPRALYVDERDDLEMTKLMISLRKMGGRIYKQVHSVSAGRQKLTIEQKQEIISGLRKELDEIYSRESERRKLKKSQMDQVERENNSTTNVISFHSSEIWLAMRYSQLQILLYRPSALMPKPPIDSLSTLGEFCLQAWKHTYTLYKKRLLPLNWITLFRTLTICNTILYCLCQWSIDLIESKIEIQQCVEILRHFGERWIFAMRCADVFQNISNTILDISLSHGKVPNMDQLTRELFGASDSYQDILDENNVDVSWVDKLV
Assay: PBM E-score (8-mer binding enrichment) (E-score (-0.5 to 0.5)); higher = stronger / more preferred TF binding; most listed sequences are background and not binding sites
Conditions: protein concentration: 200 nM; construct: GST-full length
Method in brief: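 Detection of bound protein used fluorescent anti-GST, with scans normalised by masliner. The proteins were GST-tagged yeast transcription factors applied at about 100-200 nM to universal all-10-mer Agilent arrays made double-stranded by primer extension. Each ungapped eight-base word, pooled with its reverse complement, was scored with an E-score from the Universal PBM Analysis Suite.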

Sequence	PBM E-score
CCCAAACC	-0.00895
CAGCCTTA	-0.226
AAGTGGAA	-0.0939
CGAACCTC	-0.0918
ACTGGGCC	-0.0838
AACGGTGC	0.332
AGCACCGC	0.461
AGCTGAAG	-0.336
TAGAAGCA	-0.248
AGGTGTTG	-0.0336
TCATTCAA	-0.225
GTGTCGGA	0.357
GGAGTGAA	0.00649
ACCGCACC	0.323
AACCATAA	-0.0356
CTGGCCGA	0.0454
GTACTGAA	0.00414
ACAATGGC	-0.237
AGACTTGC	-0.146
CGGATCCC	0.134
AGCATTTA	-0.184
ACGCGTCC	-0.14
CTGGCAGC	-0.126
GATAGGCC	0.116
GATTACCC	0.183

Sequence	PBM E-score
CAAAATCG	-0.0979
ACGTCCCG	0.111
CCTAAGGC	-0.136
GACCCGAA	0.034
CAATCATC	-0.108
GCGAGACA	-0.163
AGTTCTGG	-0.249
CAATCATG	-0.102
ACCATGCA	-0.139
GATTCGCA	0.0603
ACCGCCAT	0.265
CTTCGCCA	0.0018
AAGCCCAC	0.0467
CTAATTCC	0.15
AGTCACGG	0.23
AGGCGCAT	-0.0573
CACACGCC	0.155
CGCTTTGC	0.172
GTCTTCTA	-0.225
CAAGCGCG	0.0271
GGCTAATA	0.126
AGAAAGGG	-0.205
CGAGATCC	-0.0962
ACAAGCTG	-0.232
AGGAGGTG	-0.197

Sequence	PBM E-score
ATCGAGAA	-0.335
AAGCAGTA	-0.266
CACCTAAA	0.0247
GCGTAGCC	-0.19
CATGGTCA	-0.206
CATATACA	-0.0281
GGATGCCC	-0.0098
ACCGAGCT	0.0882
CTAGGTAC	-0.113
CATCCCAG	-0.212
ATGGTCAA	-0.0926
CATAGTGA	-0.2
CGCAGACA	-0.0673
ATATTCCA	-0.0602
CTGCACCC	0.0184
CTATTTTC	0.0555
CGAGGAAA	-0.238
ATGACGGC	0.24
GCGCTGAC	0.0553
GCTGGCCC	-0.184
CTTTACAC	0.0697
CAGCAGAG	-0.278
AAGCGTCC	-0.285
AGATATGC	-0.0711
AAAAGTCA	-0.0354

Sequence	PBM E-score
CGCTAAAG	-0.021
AAGGTACA	-0.355
ACTTGTGC	0.072
CAAAGAGA	-0.152
ATAACTCC	0.429
AAATCCTC	0.0211
TCGTTGAA	-0.126
ACAAGGAT	-0.294
GAATAATA	0.214
GACGGTTA	0.107
CTGGTGAA	-0.271
ACGGAACC	0.132
CTACGTAC	-0.115
CATTATCG	0.0609
ATCGGTCA	0.208
GGGAATAA	0.373
ATAAAAAG	-0.00413
AAAGCGAC	0.0256
CCTATACA	-0.193
CACGGTGC	0.306
CCATCGCC	0.0103
ACGGGGGA	0.0722
ACGACCCG	-0.00346
GGATTTGA	0.0861
CGTCCCCA	0.0206

Sequence	PBM E-score
CCGCTATC	0.341
CTCTGCAC	-0.0404
AATACGCC	0.238
AAAGCACT	-0.00142
GTCACCTA	-0.102
CTGTATAC	-0.109
GTCAGTCA	-0.217
ACGATTGC	-0.119
ACTTAATC	-0.166
GGCATCAC	0.203
GGTATCAC	0.183
ACAGATAC	0.0761
GTACAGCA	-0.0537
ATACACAT	-0.198
AGCCTAGG	-0.222
ACCTTAAA	0.0476
AATTCGGT	0.153
AGGTTTTC	-0.258
CTTAGTAC	0.00597
AGAGGTGA	-0.139
ATCCAGAC	0.0203
GCACCAAA	-0.168
GAAAACAC	0.195
AGTCAACG	-0.144
AGTTAATC	0.101

Sequence	PBM E-score
ATGGAACG	-0.0862
AGTTGCGG	0.182
ACAGTTAA	-0.0537
ACGCCCTA	0.0435
AGCCGTGA	0.0842
GTTAATCA	-0.00602
ACGGGAGG	0.0128
CAACGAAA	-0.126
ATTAGGAC	-0.0207
TCTTACAA	-0.14
GTAAACTA	-0.0246
GCCGCTCA	0.303
GCACCAGC	-0.0723
CGGCCCTA	0.426
CCAAGTTC	0.0535
GTGTTCCA	-0.104
AATGTGGC	-0.0962
AAGATACT	-0.0155
GCGAGCGA	-0.139
ACCCTCAG	-0.166
ATCGCATG	-0.0961
ATAATGTG	-0.143
CGTATAAG	0.109
ATCTGACG	-0.0873
AATAGATT	-0.0389

Sequence	PBM E-score
CACCCTAG	-0.151
CGATTAAG	0.068
ACGACAGC	-0.181
AGCCTACC	-0.178
AATATACG	0.00055
GCAATAAA	0.152
CGTGTCGA	-0.285
CATAACTC	0.115
CAGGCAAC	-0.39
AAGTCTAC	-0.177
CCGCACTC	0.148
ATAAATTC	0.13
AACAAGGT	-0.0752
TACTCCCA	0.0265
CTGGTCAC	-0.233
CGCATATC	0.0209
CAGGCTAC	-0.0641
CATGATCG	0.035
CCACACCC	-0.0921
GCCCCAGA	-0.0372
AGGAGTTG	-0.154
CAAAGCCC	0.285
ACGTGGAC	0.0889
CGGCTAGA	-0.0327
ACCGGACA	0.321

Sequence	PBM E-score
AAGCATAT	-0.0271
AACCTTCA	-0.272
AACACTTC	-0.246
CTATGGGC	-0.237
ATCGGCAC	0.339
ACCACCCT	-0.168
GCCCGGGA	0.262
CCCCGCGC	0.311
CACGTATG	-0.0394
CGGAATCA	0.267
AAATGGAG	0.048
GGCCTTCA	0.103
ACACGGGA	0.0484
CAATTTGG	-0.102
AACCGACA	0.181
CGTACCGC	0.302
CTCCCACA	-0.0559
GCTTGTCA	0.0846
AATGGACA	-0.222
GCGGAGAA	0.259
TGTTATAA	0.146
AGCTAGTG	-0.326
GTTAAGAA	0.0684
ATTCACGG	0.216
CCTCGTGA	-0.168

Sequence	PBM E-score
CCCTGTAC	-0.0542
AACCCAAT	-0.235
CAACCCAC	-0.11
AGTTCACG	-0.254
CCTGGCGC	0.0831
CCGAGAAG	0.0415
CCGACAAA	0.353
CGCTTCGC	0.161
AAGTTCAC	-0.0104
CAACTCCC	0.0133
CGGTGAGC	0.00906
ATAGTGTC	0.0257
CCGCTCGA	0.328
AACCGAAC	-0.0424
CGCAAGTA	0.117
CCTGTCTA	-0.145
GCACTTCA	-0.0218
CATCACCG	0.251
CGGATCTC	0.103
